Reference: US20100158922A1
Values belong to the binder of their own block, whether it stands above or below them.

Target: recombinant human IFNγ (human) (UniProt P01579)
Experiment: cell-based or functional assay

Sequence of UniProt P01579 (P01579 24-166 limits assumed): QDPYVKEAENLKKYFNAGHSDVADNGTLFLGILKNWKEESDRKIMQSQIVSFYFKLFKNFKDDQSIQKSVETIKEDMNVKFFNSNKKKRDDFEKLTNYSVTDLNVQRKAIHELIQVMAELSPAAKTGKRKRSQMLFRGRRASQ

Percentage inhibition of IFNγ-induced reporter gene expression at 0.011 nM scFv: 0% | Percentage inhibition of IFNγ-induced reporter gene expression at 0.043 nM scFv: 0% | Percentage inhibition of IFNγ-induced reporter gene expression at 0.17 nM scFv: 0% | Percentage inhibition of IFNγ-induced reporter gene expression at 0.68 nM scFv: 44% | Percentage inhibition of IFNγ-induced reporter gene expression at 2.7 nM scFv: 47%
B4: AD1.3R3P6_G10 scFv (scFv, part only; not given: linker, part only)
scFv, part: [about 100 residues omitted here]DGWNALGWLESWGKGTTVTVSSNFMLTQPHSVSESPGKTVTISCAGSSGSIASNYVQWYQQRPGSAPTAVIYEDNQRPSGVPDRFSGSIDSSSNSASLTISGLKTEDEADYYCQSYSYNNQVVFGGGTKVTVLG

Percentage inhibition of IFNγ-induced reporter gene expression at 0.011 nM scFv: 4% | Percentage inhibition of IFNγ-induced reporter gene expression at 0.043 nM scFv: 38% | Percentage inhibition of IFNγ-induced reporter gene expression at 0.17 nM scFv: 24% | Percentage inhibition of IFNγ-induced reporter gene expression at 0.68 nM scFv: 73% | Percentage inhibition of IFNγ-induced reporter gene expression at 2.7 nM scFv: 75%
B5: AD1.4R4P2_G7 scFv (scFv, part only; not given: linker, part only)
scFv, part: [about 100 residues omitted here]DGWNALGWLESWGQGTMVTVSSNFMLTQPHAVSESPGKTVTISCTGRNGNIASNYVQWYQQRPDSAPTLIIFEDTQRPSGVPTRLSGSIDTSSNSASLIISSLRTEDEADYYCQSSDSNRVLFGGGTKVTVLG

Percentage inhibition of IFNγ-induced reporter gene expression at 0.011 nM scFv: 0% | Percentage inhibition of IFNγ-induced reporter gene expression at 0.043 nM scFv: 33% | Percentage inhibition of IFNγ-induced reporter gene expression at 0.17 nM scFv: 58% | Percentage inhibition of IFNγ-induced reporter gene expression at 0.68 nM scFv: 67% | Percentage inhibition of IFNγ-induced reporter gene expression at 2.7 nM scFv: 56%
B10: AD1.4R4P2_C9 scFv (scFv, part only; not given: linker, part only)
scFv, part: [about 100 residues omitted here]DGWNALGWLESWGRGTLVTVSSNFMLTQPHSVSESPGRTITISCTRSGGSIGSYYVQWYQQRPGTAPTTVIYDDKKRPSGVPDRFSGSIDSSSNSASLTISGLKTEDEADYYCQSYDSNNLVVFGGGTKVTVLG

Percentage inhibition of IFNγ-induced reporter gene expression at 0.011 nM scFv: 0% | Percentage inhibition of IFNγ-induced reporter gene expression at 0.043 nM scFv: 0% | Percentage inhibition of IFNγ-induced reporter gene expression at 0.17 nM scFv: 56% | Percentage inhibition of IFNγ-induced reporter gene expression at 0.68 nM scFv: 53% | Percentage inhibition of IFNγ-induced reporter gene expression at 2.7 nM scFv: 62%
B12: AD1.4R4P1_B9 scFv (scFv, part only; not given: linker, part only)
scFv, part: [about 100 residues omitted here]DLTVGGPWYYFDYWGQGTLVTVSSNFMLTQPHSVSESPGKTVTISCTRSSGSIVSNYVQWYQQRPGSAPTTVIFDDDQRPSGVPGRFSGSLDSSSNSASLTISGLQTEDEADYYCQSYDSSNVVFGGGTKVTVLG

Percentage inhibition of IFNγ-induced reporter gene expression at 0.011 nM scFv: 0% | Percentage inhibition of IFNγ-induced reporter gene expression at 0.043 nM scFv: 0% | Percentage inhibition of IFNγ-induced reporter gene expression at 0.17 nM scFv: 3% | Percentage inhibition of IFNγ-induced reporter gene expression at 0.68 nM scFv: 32% | Percentage inhibition of IFNγ-induced reporter gene expression at 2.7 nM scFv: 68%
B13: AD1.3R3P6_F9 scFv (scFv, part only; not given: scFv linker, part only)
scFv, part: [about 100 residues omitted here]GGNYGDYFDYFDYWGRGTMVTVSSNFMLTQPHSVSESPGKTVTISCTRSSGSIASNYVQWYQQRPGSAPTIVIYEDNQRPSGVPHRFSGSIDSSSNSASLTISGLKTEDEADYYCQSYEGFGGGTKLTVLG

The next lines start with the binder.

B1: AD1.2R2P2_D6 scFv (scFv, part only; not given: scFv linker, part only)
scFv, part: [about 100 residues omitted here]DGWNALGWLESWGKGTMVTVSSNFMLTQPHSVSESPGKTVTISCTGSSGSIASNYVQWYQQRPGSAPTTVIYEDNQRPSGVPDRFSGSIDSSSNSASLTISGLKTEDEADYYCQSYDSSNQEVVFGGGTKLTVLG
Percentage inhibition of IFNγ-induced reporter gene expression at 0.011 nM scFv: 0% | Percentage inhibition of IFNγ-induced reporter gene expression at 0.043 nM scFv: 11% | Percentage inhibition of IFNγ-induced reporter gene expression at 0.17 nM scFv: 31% | Percentage inhibition of IFNγ-induced reporter gene expression at 0.68 nM scFv: 73% | Percentage inhibition of IFNγ-induced reporter gene expression at 2.7 nM scFv: 82%

B2: AC1.2R3P2_B4 scFv (scFv, part only; not given: linker, part only)
scFv, part: [about 100 residues omitted here]DHSSGWYVISGMDVWGRGTMVTVSSNFMLTQPHSVSESPGKTVTISCTRSSGSIASNYVQWYQQRPGSSPTTVISEDNQRPSGVPDRFSGSVDSSSNSASLTISGLRTEDEADYYCQSNDSDNVVFGGGTKLTVLG
Percentage inhibition of IFNγ-induced reporter gene expression at 0.011 nM scFv: 0% | Percentage inhibition of IFNγ-induced reporter gene expression at 0.043 nM scFv: 5% | Percentage inhibition of IFNγ-induced reporter gene expression at 0.17 nM scFv: 21% | Percentage inhibition of IFNγ-induced reporter gene expression at 0.68 nM scFv: 49% | Percentage inhibition of IFNγ-induced reporter gene expression at 2.7 nM scFv: 63%

B3: AD1.1R3P3_G9 scFv (scFv, part only; not given: linker, part only)
scFv, part: [about 100 residues omitted here]DFWVITSGNDYWGRGTTVTVSSNFMLTQPHSVSESPGKTVTISCTRSSGSIASNYVQWYQQRPGSSPTTVIFEDNRRPSGVPDRFSGSIDTSSNSASLTISGLKTEDEADYYCQSFDSTNLVVFGGGTKLTVLG
Percentage inhibition of IFNγ-induced reporter gene expression at 0.011 nM scFv: 0% | Percentage inhibition of IFNγ-induced reporter gene expression at 0.043 nM scFv: 0% | Percentage inhibition of IFNγ-induced reporter gene expression at 0.17 nM scFv: 0% | Percentage inhibition of IFNγ-induced reporter gene expression at 0.68 nM scFv: 12% | Percentage inhibition of IFNγ-induced reporter gene expression at 2.7 nM scFv: 52%

B6: AD1.3R3P5_F8 scFv (scFv, part only; not given: linker, part only)
scFv, part: [about 100 residues omitted here]VGSWYLEDFDIWGRGTMVTVSSNFMLTQPHSVSESPGKTVTISCTRSSGSIASNYVHWYQQRPGSSPTTVIYEDNRRPSGVPARFSGSIDSSSNSASLTISGLETDDEADYYCQSSDTTYHGGVVFGGGTKLTVLG
Percentage inhibition of IFNγ-induced reporter gene expression at 0.011 nM scFv: 0% | Percentage inhibition of IFNγ-induced reporter gene expression at 0.043 nM scFv: 0% | Percentage inhibition of IFNγ-induced reporter gene expression at 0.17 nM scFv: 48% | Percentage inhibition of IFNγ-induced reporter gene expression at 0.68 nM scFv: 64% | Percentage inhibition of IFNγ-induced reporter gene expression at 2.7 nM scFv: 64%

B7: AC1.2R3P2_A6 scFv (scFv, part only; not given: linker, part only)
scFv, part: [about 100 residues omitted here]DGSSGWYVPHWFDPWGRGTLVTVSSNFMLTQPHSVSESPGKTVTISCTRSSGSIVSNYVQWYQQRPGSAPTTVIYEDNRRPSGVPDRFSGSIDSSSNTASLTISGLEAEDEADYYCQSYDGSNRWMFGGGTKLTVLG
Percentage inhibition of IFNγ-induced reporter gene expression at 0.011 nM scFv: 0% | Percentage inhibition of IFNγ-induced reporter gene expression at 0.043 nM scFv: 87% | Percentage inhibition of IFNγ-induced reporter gene expression at 0.17 nM scFv: 100% | Percentage inhibition of IFNγ-induced reporter gene expression at 0.68 nM scFv: 92% | Percentage inhibition of IFNγ-induced reporter gene expression at 2.7 nM scFv: 82%

B8: AC1.2R2P2_D8 scFv (scFv, part only; not given: linker, part only)
scFv, part: [about 100 residues omitted here]DGSSGWYVPHWFDPWGQGTLVTVSSNFMLTQPHSVSESPGKTVTISCTRSSGSIVSNYVQWYQQRPGSSPTTVIYEDNQRPSGVPDRFSGSIDSSSNSASLTISGLKTEDEADYYCQSYDSNNFWVFGGGTKLTVLG
Percentage inhibition of IFNγ-induced reporter gene expression at 0.011 nM scFv: 0% | Percentage inhibition of IFNγ-induced reporter gene expression at 0.043 nM scFv: 10% | Percentage inhibition of IFNγ-induced reporter gene expression at 0.17 nM scFv: 40% | Percentage inhibition of IFNγ-induced reporter gene expression at 0.68 nM scFv: 60% | Percentage inhibition of IFNγ-induced reporter gene expression at 2.7 nM scFv: 60%

B9: AC1.4R4P2_C10 scFv (scFv, part only; not given: linker, part only)
scFv, part: [about 100 residues omitted here]DGSSGWYVPHWFDPWGRGTMVTVSSNFMLTQPHSVSESPGKTVTISCTRSSGTIASNYVQWYQQRPGSSPTTVIYEDNQRPSGVPDRFSGSIDSSSNSASLTISGLKTEDEADYYCQSYDNSNHWVFGGGTKVTVLG
Percentage inhibition of IFNγ-induced reporter gene expression at 0.011 nM scFv: 19% | Percentage inhibition of IFNγ-induced reporter gene expression at 0.043 nM scFv: 34% | Percentage inhibition of IFNγ-induced reporter gene expression at 0.17 nM scFv: 53% | Percentage inhibition of IFNγ-induced reporter gene expression at 0.68 nM scFv: 50% | Percentage inhibition of IFNγ-induced reporter gene expression at 2.7 nM scFv: 63%

B11: AD1.3R3P6_E1 scFv (scFv, part only; not given: linker, part only)
scFv, part: [about 100 residues omitted here]RSFDSGGSFEYWGQGTMVTVSSNFMLTQPHSVSESPGKTVTISCTRSSGYIASSYVQWYQQRPGSSPTTVIFEDDRRPSGVPDRFSGSIDGSSNSASLTISGLRTEDEADYYCQSYDDTTPWVFGGGTKLTVLG
Percentage inhibition of IFNγ-induced reporter gene expression at 0.011 nM scFv: 0% | Percentage inhibition of IFNγ-induced reporter gene expression at 0.043 nM scFv: 10% | Percentage inhibition of IFNγ-induced reporter gene expression at 0.17 nM scFv: 38% | Percentage inhibition of IFNγ-induced reporter gene expression at 0.68 nM scFv: 68% | Percentage inhibition of IFNγ-induced reporter gene expression at 2.7 nM scFv: 43%
